Assay results as given in publication PMC4336329 (PLoS ONE, 2015).
Screen size: about 310,000 compounds; about 2,200 (0.71%) showed an effect of 50% or more. Effects have a minus sign here. The list shows a part of the results.

These molecules were tested against human ether-à-go-go-related gene (hERG) potassium channel (human, UniProt Q12809) (assay: primary screen, population patch clamp on CHO cells stably expressing hERG).
human ether-à-go-go-related gene (hERG) potassium channel, sequence (Q12809 whole entry, looked up): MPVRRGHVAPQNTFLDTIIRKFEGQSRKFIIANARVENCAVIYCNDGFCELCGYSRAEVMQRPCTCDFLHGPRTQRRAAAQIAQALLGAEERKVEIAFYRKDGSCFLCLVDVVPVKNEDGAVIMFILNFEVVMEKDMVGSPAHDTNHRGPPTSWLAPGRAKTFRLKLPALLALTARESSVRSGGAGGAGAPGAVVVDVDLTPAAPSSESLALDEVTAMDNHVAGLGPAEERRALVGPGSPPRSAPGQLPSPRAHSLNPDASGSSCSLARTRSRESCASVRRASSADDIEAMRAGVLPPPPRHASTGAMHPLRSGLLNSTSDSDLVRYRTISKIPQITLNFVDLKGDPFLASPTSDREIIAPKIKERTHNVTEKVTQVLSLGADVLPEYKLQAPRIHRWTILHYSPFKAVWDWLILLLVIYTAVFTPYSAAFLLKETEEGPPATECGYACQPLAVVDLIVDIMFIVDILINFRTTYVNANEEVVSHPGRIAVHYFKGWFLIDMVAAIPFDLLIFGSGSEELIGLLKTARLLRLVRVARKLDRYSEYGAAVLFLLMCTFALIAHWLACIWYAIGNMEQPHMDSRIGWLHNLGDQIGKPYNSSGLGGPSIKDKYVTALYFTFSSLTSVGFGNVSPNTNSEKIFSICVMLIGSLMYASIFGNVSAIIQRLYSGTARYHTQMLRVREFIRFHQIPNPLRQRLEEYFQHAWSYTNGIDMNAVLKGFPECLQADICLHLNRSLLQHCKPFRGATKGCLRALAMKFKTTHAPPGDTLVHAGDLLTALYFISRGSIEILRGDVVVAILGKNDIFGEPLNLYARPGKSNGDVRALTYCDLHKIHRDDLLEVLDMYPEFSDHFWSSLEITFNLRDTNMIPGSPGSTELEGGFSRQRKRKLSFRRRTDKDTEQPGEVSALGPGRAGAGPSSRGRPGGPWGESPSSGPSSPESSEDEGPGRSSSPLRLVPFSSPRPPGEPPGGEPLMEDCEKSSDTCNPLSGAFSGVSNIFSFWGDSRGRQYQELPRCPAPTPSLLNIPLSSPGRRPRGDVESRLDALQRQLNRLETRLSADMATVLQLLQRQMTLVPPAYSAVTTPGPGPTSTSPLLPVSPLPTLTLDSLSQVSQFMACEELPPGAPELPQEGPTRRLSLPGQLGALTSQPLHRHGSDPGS

Compound | hERG current change (%, negative = inhibition) at 1uM
CC(CCc1ccccc1)NC(=O)Cc1cccs1 (stereo not drawn) | 1.17%
O=C(Nc1ccccc1F)c1ccc2c(c1)OCO2 | 15.2%
CC(NC(=O)c1ccccc1OC(F)F)c1ccc(-n2ccnc2)cc1 (stereo not drawn) | -12.5%
CCCc1nnc(NC(=O)CCC(=O)N2CCN(C3CCCC3)CC2)s1 | 14.4%
CC1Sc2ccc(S(=O)(=O)N3CCC(C(=O)N(C)Cc4ccccc4)CC3)cc2NC1=O (stereo not drawn) | 13.2%
COc1ccccc1N1CCN(CCc2ccccc2)CC1 | -17.5%
Cc1ccc(S(=O)(=O)N(C)c2ccc(C(=O)Nc3ccccc3C(=O)N3CCOCC3)cc2)cc1 | 15.1%
Cc1c(CC(=O)NCC(=O)O)c(=O)oc2cc3oc4c(c3cc12)CCCC4 | 18.4%
O=C(CN1CCC(NC(=O)c2ccco2)CC1)Nc1ccccc1[N+](=O)[O-] | -2.96%
CCc1ccc(CN2CCC(Oc3ccc(C(=O)N4CCCC4)cc3)CC2)cc1 | -77.5%
CCOC(C(=O)OCC(O)CN(CC)CC)(c1ccccc1)c1ccccc1.Cl (stereo not drawn) | 7.76%
CC(C)(C)c1nn(-c2ccccc2)c2[nH]c(=O)c(CNCc3ccco3)cc12 | 3.85%
COc1ccc(-c2noc(C3CCCN(C(=O)Nc4ccccc4F)C3)n2)cc1 (stereo not drawn) | 16.6%
CC(=O)NC1CC2CCCC(C1)N2 (stereo not drawn) | 14%
COc1ccc2c(c1)[nH]c1c(=O)n(CCCn3ccnc3)cnc12 | -6.25%
N#Cc1ccccc1NS(=O)(=O)c1cc2c3c(c1)CCC(=O)N3CCC2 | 14.2%
CN(CC(=O)Nc1ccc(N2CCOCC2)cc1)C(=O)CSc1ccccc1F | 12.9%
FC(F)(F)c1cnc(Oc2ccccc2-c2nnc(-c3ccc(Cl)cc3)o2)c(Cl)c1 | 2.47%
O=C(NC1CCCC1)C1CCN(c2cnccn2)CC1 | 20.6%

Compound | hERG current change (%, negative = inhibition) at 1uM
COc1ccc(C(C)=O)cc1Cn1nc(C)c([N+](=O)[O-])c1C | 15.9%
Cc1ccc(C(=O)NCCNC(=O)c2cccnc2)cc1 | 12.9%
O=C(CCn1cnc2ccccc2c1=O)Nc1cccc(Cl)c1Cl | 18.2%
Brc1ccc(C2=CC(c3ccco3)n3ncnc3N2)cc1 (stereo not drawn) | 8.63%
O=C(c1ccc(Cl)cc1)C1CCCN(Cc2cccc3ncccc23)C1 (stereo not drawn) | -8.07%
O=C(NCCCCCCCCCNC(=O)C(F)(F)F)C(F)(F)F | -4.14%
CSc1ncccc1C(=O)NC1CCCCCCC1 | 10.2%
O=C(CSc1n[nH]c(-c2cccnc2)n1)Nc1ccc(Br)cc1 | 9.74%
CCN(CC)c1nc(-c2ccccc2)nc2ccccc12.Cl | 5.38%
Cn1c(=O)n(CCCOc2ccc(Br)cc2)c2ccccc21 | 17.1%
COc1ccc(NC(=O)CSc2nc(N)c3cc4c(nc3n2)CCCC4)cc1 | 5.92%
O=C(Nc1ccc(Oc2cccnc2)cc1)C1CCCCN1Cc1ccc(CO)o1 (stereo not drawn) | 2.32%
O=C(O)c1cccnc1Sc1ccc(Br)cc1 | 12.8%
COc1ccc(CNCC(O)(c2ccccc2)c2ccccc2)cc1OC | -8.24%
Br.N=C1c2ccccc2CN1NC(=O)c1cccc(S(=O)(=O)N2CCCC2)c1 | 6.6%
COc1ccc(OC)c2c(C)cc(N3CCCCCC3)nc12 | 9.03%
CCN(CC)C(=O)CN(c1cccc([N+](=O)[O-])c1)S(=O)(=O)c1ccccc1 | -2.93%
CC1CN(C(=O)c2cc3cc(Cl)cc(Cl)c3oc2=O)CC(C)O1 (stereo not drawn) | 3.75%
COCCCN(Cc1ccccn1)S(=O)(=O)Cc1ccccc1 | 5.78%

Compound | hERG current change (%, negative = inhibition) at 1uM
COc1ccc(/C=N/NC(=O)Cn2cnc3c2c(=O)n(C)c(=O)n3C)c(OC)c1OC | 8.56%
O=S(=O)(NCc1ccccc1)[C@@H]1CC2C=CC1C2 (stereo partly drawn) | 7.63%
CCOC(=O)c1c(C)n(C)c2ccc(OC(=O)c3ccc([N+](=O)[O-])cc3)cc12 | 11.2%
Cc1cc(NC(=O)CSc2nnc(C)n2-c2ccccc2)no1 | 14.6%
Nc1nc(NCc2ccco2)nc(N2CCCC2)c1[N+](=O)[O-] | 4.06%
CCNc1ccc(S(=O)(=O)N(C)C)cc1NCC(=O)Nc1ccc(Br)cc1F | -6.42%
O=C(C1=NN[C@@H]2C(=O)N(Cc3ccccc3)C(=O)[C@H]12)c1ccc(F)cc1 | 6.21%
Cc1cc2ccccn2c1C(=O)c1ccccc1Br | 10.6%
CC(OC(=O)c1cccc(S(=O)(=O)N2CCCC2)c1)C(=O)NC1CCCCC1C (stereo not drawn) | 10.5%
Cc1cc(/C=C(\C#N)C(=O)O)c(C)n1CC(C)C | 15%
COc1cccc(COC(=O)c2sc3nc4n(c(=O)c3c2C)CCC4)c1OC | 11.4%
C1CCCCCC2(CCCCC1)OCC(CN1CCOCC1)O2 (stereo not drawn) | 8.66%
Cc1ccc2c(c1)N(CC(=O)NCc1ccco1)C(=O)C(C(C)C)O2 (stereo not drawn) | 11.4%
CCCCCCCNC(=O)C1(CC2CC(c3cccc(Br)c3)=NO2)CCNCC1 (stereo not drawn) | -36.1%
CCOC(=O)Cn1c(=O)oc2cc(S(=O)(=O)N3CCn4c3nc3ccccc34)ccc21 | -0.238%
O=C(O)C1Cc2[nH]cnc2C(c2cccc([N+](=O)[O-])c2)N1 (stereo not drawn) | 8.6%
CCCc1nc2ccc(NC(=O)c3ccco3)cc2c(=O)n1Cc1ccc(Cl)cc1 | -6.18%
CC(C)(C)c1ccc(OCc2ccc(C(=O)NCc3cccnc3)o2)cc1 | 9.88%
C=CCNC(=O)c1onc(CSc2ccc(Cl)cc2)c1C(=O)NCC=C | -0.357%
